Measured values taken from PubChem BioAssay AID720647 (Broad Institute, 2013).
Screen size: about 380,000 compounds; about 1,300 (0.34%) were called active. This list was built around the results that the source calls inconclusive (neither active nor inactive); the mix of calls is not that of the screen.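 How the source made its calls: active means drop in luminescence signal, shown as inhibition above about 50% in the replicate tests (limit read from the data, passing the limit was not always enough); inconclusive means probably only some replicates passing the limit; inactive means the rest.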

Each compound was assayed on Drosophila bursicon receptor LGR2 (rickets) (assay: inhibitors of bursicon-induced LGR2 CRE-luciferase signal, primary screen, cell-based, HEK293, CRE-luciferase reporter, bursicon stimulation (AID 720647;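 further: agonist challenge used bursicon conditioned medium at about half maximal strength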)). Conditions: bursicon-stimulated, 4 h, at 9.99 µM, stronger effect = higher value.

Row | SMILES | inhibition
1 | O=C(Cc1ccccc1Cl)Nc1cccnc1 | inconclusive: 55.7%
2 | COc1ccc(S(=O)(=O)N2CCN(CC(=O)Nc3cccc(F)c3)CC2)cc1 | inactive: -17.1%
3 | CCCCCCc1cc2cc(C(=O)Nc3ccccc3)c(=O)oc2cc1O | inactive: 41.1%
4 | CCn1c([N+](=O)[O-])nc2c1c(=O)[nH]c(=O)n2C | inconclusive: 60.6%
5 | CC(C)CCNC(=O)C(c1ccc(O)cc1)N(Cc1cccs1)C(=O)C1COc2ccccc2O1 (centres undefined) | inconclusive: 21.5%
6 | Oc1ccc(-c2csc(Nc3ncccn3)n2)cc1 | inactive: -64.6%
7 | COc1ccc(S(=O)(=O)/N=C2\C=C(Nc3ccc(O)cc3)C(=O)c3ccccc32)cc1 | active: 101%
8 | Cc1[nH]c2ccccc2c(=O)c1C(=O)/C=C/c1ccccc1 | active: 74.3%
9 | CC(=O)OCCNc1cc(Sc2nc3ccccc3[nH]2)c2nonc2c1[N+](=O)[O-] | inconclusive: 56.9%
10 | O=C(C[C@H]1C[C@H]2c3cc(NC(=O)NC4CCCCC4)ccc3O[C@H]2[C@@H](CO)O1)NCCc1ccccc1 | inactive: 15%
11 | Cc1cc(C(=O)COC(=O)c2n[nH]c3ccccc23)c(C)n1CC1CCCO1 (centres undefined) | inconclusive: 48.3%
12 | O=C(CCN=C1NS(=O)(=O)c2ccccc21)OCC(=O)c1ccc(F)c(F)c1 | inactive: 5.53%
13 | CN1OC[C@@H]2CN(S(=O)(=O)c3cccc4ccccc34)[C@H](c3ccc(-c4cccnc4)cc3)C[C@@H]21 | inconclusive: -4.61%
14 | COC(=O)[C@@]1(C(C)C)N=C(c2cc(OC)c(OC)c(OC)c2)[C@]2(O1)C(=O)N(C)c1ccccc12 | inconclusive: 9.79%
15 | Cc1ccccc1N1CC(C(=O)O)CC1=O (centres undefined) | inconclusive: 51.8%
16 | O=C1N(c2ccccc2)C[C@@H]2C[C@@H](c3cccs3)N3CCC[C@@]123 | inconclusive: 42.4%
17 | CSc1ccccc1OCc1cc(C(=O)N2CCCC(C)C2)no1 (centres undefined) | inactive: -58%
18 | C[C@@H]1CN([C@H](C)CO)C(=O)c2cccc(NC(=O)Nc3ccc(C(F)(F)F)cc3)c2O[C@@H]1CN(C)CC1CCCCC1 | inconclusive: -0.652%
19 | CCCCc1c(-c2ccccc2OC)ncn1CCc1ccc(Cl)cc1 | inconclusive: 32.4%
20 | O=C1/C(=C/c2cccs2)SC(=S)N1C1CCS(=O)(=O)C1 (centres undefined) | inconclusive: 47.4%
21 | Nc1nc(/C=C/c2cccnc2)nc(-c2ccccc2O)n1 | inconclusive: 41.1%
22 | CCc1ccc(NC(=O)c2cnc(N3CCN(c4ccccn4)CC3)c3ccccc23)cc1 | inconclusive: 46.5%
23 | Oc1ccccc1/C=N/NC(=S)NC1CC2C=CC1C2 (centres undefined) | inactive: -76.8%
24 | CC(=O)c1ccc(N=Nc2ccc(N)cc2)cc1 | active: 63.6%
25 | C[C@@H]1CCCCO[C@H](CN(C)CC2CCCCC2)[C@H](C)CN([C@H](C)CO)C(=O)c2cc(NS(=O)(=O)c3ccccc3)ccc2O1 | inconclusive: -8.33%

Row | SMILES | inhibition
26 | CC(C)CCN1C(=O)c2ccc(C(=O)Nc3cccc(S(N)(=O)=O)c3)cc2C1=O | inconclusive: 49.8%
27 | Clc1ccccc1/C=C/c1nc(-c2ccccn2)no1 | active: 98.4%
28 | C[C@@H]1CN([C@@H](C)CO)C(=O)Cc2cc(NS(C)(=O)=O)ccc2O[C@H]1CN(C)Cc1ccc(C(F)(F)F)cc1 | inactive: 4.96%
29 | NS(=O)(=O)c1ccc(CCNCc2cc(Br)ccc2OCc2ccccc2F)cc1 | inconclusive: 13.3%
30 | CCCNC(=O)Nc1ccc2c(c1)C(=O)N(C)C[C@H](OC)[C@H](C)CN(Cc1ccc(-c3ccccn3)cc1)[C@@H](C)CO2 | inconclusive: 62.7%
31 | CCOC(=O)[C@]12Cc3c(cc(OC)c(OC)c3OC)[C@H]1N(Cc1ccccc1)C(=O)c1cc(OC)ccc12 | inconclusive: 51.9%
32 | C[C@H]1CN([C@@H](C)CO)C(=O)c2ccccc2-c2ccccc2CO[C@H]1CN(C)Cc1cccc2c1OCCCO2 | inactive: -4.75%
33 | Cc1ccc(-c2ccc(C3[C@H]4CNC[C@@H]3N4Cc3nccs3)cc2)cc1 (some centres undefined) | inactive: 0.09%
34 | CC(C)Cn1c(N)c(C(=O)COC(=O)c2cc(C3CC3)nc3ccccc23)c(=O)n(C)c1=O | inconclusive: 56.8%
35 | CCOC(=O)c1cn2nc(N3CCCC3)ccc2n1 | active: 68.2%
36 | Cc1noc(C)c1S(=O)(=O)Nc1ccc2c(c1)C(=O)N([C@H](C)CO)C[C@H](C)[C@H](CN(C)C(=O)Nc1ccc(F)cc1)OCCCC[C@@H](C)O2 | inconclusive: 51.2%
37 | C[C@@H]1CN([C@H](C)CO)C(=O)c2cc(NC(=O)Nc3ccccc3)ccc2O[C@@H](C)CCCCO[C@H]1CN(C)S(=O)(=O)c1cccs1 | inactive: -24.1%
38 | COc1cccc(-c2ccc3c(c2)[C@@H]2[C@@H](CCN2S(=O)(=O)c2ccccc2OC)[C@H](CO)N3C)c1 | inactive: 0.139%
39 | COc1ccc(C(=O)N/N=C/c2ccc(N(C)c3ccccc3)cc2)cc1 | inconclusive: 54.1%
40 | COc1ccc(N/C=C2\CCc3ccccc3C2=O)cc1 | active: 80.9%
41 | COc1cc(C(=O)NNC(=O)c2ccc3ccccc3n2)cc(OC)c1OC | inactive: -14.8%
42 | O=C(CSc1ccccc1)Nc1ccc2c(c1)OCCO2 | inactive: -73.4%
43 | Cc1cc(C(=O)Nc2ccc3c(c2)OCCO3)ccc1[N+](=O)[O-] | active: 59.3%
44 | O=Cc1[nH]c2ccccc2c1N(C(=O)CCl)c1ccc([N+](=O)[O-])cc1 | inconclusive: 34.4%
45 | CCCc1c(-c2ccccc2F)ncn1CCc1ccccc1OC | inconclusive: 52.9%
46 | CNC[C@@H]1Oc2c(NC(=O)Nc3c(C)noc3C)cccc2C(=O)N([C@@H](C)CO)C[C@@H]1C | inactive: 4.01%
47 | Cc1cn([C@H]2C[C@H](O)[C@@H](CNS(=O)(=O)N3CCCC3)O2)c(=O)[nH]c1=O | inconclusive: -4.33%
48 | COc1ccc(-c2ccc(C(C)=O)cc2)cc1[C@H]1[C@@H]2C=CCC[C@@]2(C)C(=O)N1Cc1ccccc1 | inactive: 22.2%
49 | Cc1cccc(/C(N)=N/OC(=O)c2ccc(Cl)cc2Cl)c1 | inconclusive: 1.52%
